From the supplement of paper PMC11417369 come the findings set out here.

This is one part of the list.

This experiment relates to PF3D7_0420300 AP2 domain 1 (GST-tagged). As to the kind of experiment: gcPBM binding intensity (ln(normalized median fluorescence intensity)); higher = stronger DNA binding. In outline: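 In this array assay, P. falciparum DNA-binding domains with a GST tag, expressed in E. coli, were applied for 1 h to primer-extended double-stranded 36-bp intergenic genomic probes and negative controls on an Agilent 4 × 180k array. Bound protein was visualised with Alexa488 anti-GST antibody at 488 nm. Binding intensity is the highest Masliner-normalised natural-log median intensity across replicate spots of either probe orientation.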
Take “GTTTATAAAATAAGAAGTACTTTATGAGAACCATAT [XGTACX_site5789]”: the “gcPBM binding intensity (ln)” value turned out to be 9.12.

Take “ATAAACAAGACGCAACAAAGTAGAAATTAAAAATAA [CACACA_negctrl_site345]”: the “gcPBM binding intensity (ln)” value was determined as 9.47.

In the case of “AAAAATGGAATTATCTGTACATATATAGTTTTTAAA [XGTACX_site5580]”, the “gcPBM binding intensity (ln)” value stood at 9.07.

With “TGGTACCTTACTTTTACACACTTTTTTTTTTTTTTT [CACACA_site1557]”, the “gcPBM binding intensity (ln)” value came to 9.59.

With “TTTTGAGTAGCCTATTGTACGAACTTTTTAAATACA [XGTACX_site1224]”, the “gcPBM binding intensity (ln)” value amounted to 9.07.

Consider “CCATTTTAAATATGCACACAGATGCACTAACACATT [CACACA_site5099]”, for which the “gcPBM binding intensity (ln)” value amounted to 9.46.

Take “AATATATACGCATGCGCACACACAAGTGGGAAATTT [CACACA_site1786]”: the “gcPBM binding intensity (ln)” value came to 9.7.

Consider “CACCCATAAATATACACACGCACAACACAAAATAAA [CACACA_site2903]”, for which the “gcPBM binding intensity (ln)” value amounted to 9.73.

Take “ATATATATATATACATGTACAAATGTATAACAAATG [XGTACX_site145]”: the “gcPBM binding intensity (ln)” value worked out at 9.3.

“TTTTTTTACAACATTACACACAAATATTCTGTGTTA [CACACA_site5957]”: the “gcPBM binding intensity (ln)” value was 9.65.

For “ATATTACAACATTTTATACACACGTGATTATTAATT [CACACA_site2877]”, the “gcPBM binding intensity (ln)” value was determined as 9.63.

Consider “AATCGTGTTCTGAATACACACTAATACAAATTTGTA [CACACA_site6058]”, for which the “gcPBM binding intensity (ln)” value stood at 9.34.

With “AACAAAAATAATAATCAAATAAATAAATGAAAACAT [CACACA_negctrl_site456]”, the “gcPBM binding intensity (ln)” value came out at 9.58.

As to “AGAAAATTAAAAAGAACACACAAATATATATATAAT [CACACA_site5896]”, the “gcPBM binding intensity (ln)” value came out at 9.81.

As to “AACATTTTAAAACAGACACACACCAAAAAAAAAAAA [CACACA_site257]”, the “gcPBM binding intensity (ln)” value turned out to be 9.68.

With “AAATGAAAATAAAGCAACAGAAATATAATGTATTAT [GTGCAC_negctrl_site508]”, the “gcPBM binding intensity (ln)” value is 9.7.

For the sequence “AGGCACGTGTTATATACACACATAATCAAATAAACT [CACACA_site7852]”, the “gcPBM binding intensity (ln)” value is 9.6.

With “TTATGTCATAAATGCACACATATATATATACATATA [CACACA_site1588]”, the “gcPBM binding intensity (ln)” value came out at 9.38.

On to “AAAATAATAACATTGTGTACATAAAAAGAAAACCTT [XGTACX_site840]”, for which the “gcPBM binding intensity (ln)” value turned out to be 9.56.

Take “ACATTTTATACGATAAAATGTATAAGATTATGAAGA [TGCATGCA_negctrl_site476]”: the “gcPBM binding intensity (ln)” value came out at 9.08.

For the sequence “TATGAATGGTTAAGTACACACATATTAATATATGTA [CACACA_site3490]”, the “gcPBM binding intensity (ln)” value came out at 9.4.

Consider “CTATCTACATAAACGTGTACCCACAAATAAATAAAT [XGTACX_site5210]”, for which the “gcPBM binding intensity (ln)” value was 9.3.

With “TTTTTTAAAAAAGTTTTCTGTATTTATATATATATA [CACACA_negctrl_site31]”, the “gcPBM binding intensity (ln)” value was found to be 9.07.

In the case of “TTAACCTTTTGATATTGTACCCATAATCTAATACAA [XGTACX_site769]”, the “gcPBM binding intensity (ln)” value was 9.17.

Regarding “TCATATGTATAAATTAGTACATATTTAATGGATATA [XGTACX_site3298]”, the “gcPBM binding intensity (ln)” value turned out to be 9.08.

Regarding “GATATAATGTGTTTGGTATTCTTGATAGATAGTTTT [CACACA_negctrl_site1711]”, the “gcPBM binding intensity (ln)” value stood at 9.57.

Regarding “ACATACATACACCCACGTACGTACCGAAACACCACC [XGTACX_site1212]”, the “gcPBM binding intensity (ln)” value came to 9.51.

Turning to “ATGATGTCTTTATATTGTACATATATGAAGACGTTA [XGTACX_site7751]”, the “gcPBM binding intensity (ln)” value amounted to 9.04.

For “TTTCTTTTTTTTTTTGTATATTAAATCTAAAAAGGA [TGCATGCA_negctrl_site431]”, the “gcPBM binding intensity (ln)” value was 8.82.

Consider “ACTTCAAAAATAAACTGTACGTAAAAAAAAAAAAAA [XGTACX_site795]”, for which the “gcPBM binding intensity (ln)” value is 9.02.

Take “TTTAAATAAAATATTACACACTTAGAAAAATATATA [CACACA_site3663]”: the “gcPBM binding intensity (ln)” value stood at 9.32.

For “TTTCGTAAAATGAAATGTACTCAAAAGTAAATATAA [XGTACX_site214]”, the “gcPBM binding intensity (ln)” value is 9.03.

Take “AAATTAAAATAATAATTCTACAAATTAATTTATCAT [XGTACX_negctrl_site44]”: the “gcPBM binding intensity (ln)” value turned out to be 9.01.

“TATCAAATGTATATATGTACTTATATTTTTTTTATA [XGTACX_site1501]”: the “gcPBM binding intensity (ln)” value is 9.19.

As to “AATATATTTTCCTGCAAACACACATATAAATGTGTA [CACACA_site532]”, the “gcPBM binding intensity (ln)” value was 9.38.

As for “TATATTACAAAAAGTACACACATAAATAAATACATA [CACACA_site975]”, the “gcPBM binding intensity (ln)” value was found to be 9.81.

In the case of “ATGCTCAAAAGATATGCATGTACAAATATATGAAAT [TGCATGCA_site592]”, the “gcPBM binding intensity (ln)” value is 9.1.

Take “TGATACTTATGATAAATACACACTTGAAATTAAGGA [CACACA_site1152]”: the “gcPBM binding intensity (ln)” value amounted to 9.25.

For the sequence “TATATAGCATATTTCACACACACATAATGAATATTA [CACACA_site3546]”, the “gcPBM binding intensity (ln)” value is 9.82.

As to “ATGATATACGTAAACACACAAATAAAAAAAATTTAT [CACACA_site7544]”, the “gcPBM binding intensity (ln)” value is 9.25.

Regarding “TTTTTTAGTTTTTAGTGTACATAAATAAATAAATAA [XGTACX_site2843]”, the “gcPBM binding intensity (ln)” value came to 8.79.

Consider “TTAAAAAGAAAGTTCACACACATATAGATGACGGAA [CACACA_site7268]”, for which the “gcPBM binding intensity (ln)” value amounted to 9.76.

As for “GGTTCATATATTAACACACACATACATATTATATAT [CACACA_site2937]”, the “gcPBM binding intensity (ln)” value is 9.87.

Turning to “TGAGAGAGAAACGTAGTGCATAAAATCAAATTTAGA [GTGCAC_site9737]”, the “gcPBM binding intensity (ln)” value turned out to be 9.32.

For “AATAATCATAGTTCTACACACCTATATTGCAAAAAA [CACACA_site867]”, the “gcPBM binding intensity (ln)” value was 9.41.

Regarding “TAATATGTATTTACAAGTACTAACAAAATATTAAAA [XGTACX_site3379]”, the “gcPBM binding intensity (ln)” value came out at 9.12.

For “TACAAAAATAAATGTTGTACTATTATTTATTTCGAT [XGTACX_site1048]”, the “gcPBM binding intensity (ln)” value worked out at 9.02.

“TTATAAAAAATTTTAGTGCATATATGATTTATATAT [GTGCAC_site9831]”: the “gcPBM binding intensity (ln)” value was 8.95.

In the case of “TTAAAGATATACAAAAGTACTTTTTTTTTCGTCATT [XGTACX_site384]”, the “gcPBM binding intensity (ln)” value worked out at 8.98.

In the case of “TTCATTAAATAGAACAAAATAATAATATAACAACAA [GTGCAC_negctrl_site116]”, the “gcPBM binding intensity (ln)” value was found to be 9.5.

For “CCATATCTTTTTTGCACACACTACAATAAAACAAAA [CACACA_site4995]”, the “gcPBM binding intensity (ln)” value came to 9.43.

Take “GTAATATTATAATATACACACATAGAATATAAATAT [CACACA_site6333]”: the “gcPBM binding intensity (ln)” value amounted to 9.68.

Regarding “AAAATACACCAACACACACACATATATATATATATT [CACACA_site4149]”, the “gcPBM binding intensity (ln)” value is 10.1.

“TTCAAGATTTATTATACACACATATTAATATATATA [CACACA_site573]”: the “gcPBM binding intensity (ln)” value amounted to 9.41.

For “TTATTTTTTCTTTTTTTTCTTACCACAAAAATGGAT [CACACA_negctrl_site362]”, the “gcPBM binding intensity (ln)” value was determined as 9.06.

On to “ATTTATTTATATAATACACACAAATATCTTAATGAA [CACACA_site6064]”, for which the “gcPBM binding intensity (ln)” value was found to be 9.39.
